According to PubChem BioAssay AID624418 (National Center for Advancing Translational Sciences (NCATS), 2012):
Screen size: about 410,000 compounds; about 530 (0.13%) were called active. This list was built around the results that the source calls inconclusive (neither active nor inactive); the mix of calls is not that of the screen. Calls follow the shape of the dose curve; as a rule, active = well fitted inhibition curve with a large enough effect; inconclusive = small, poorly fitted or top-dose-only effect, or another doubt; inactive = no such curve, though single readings can be large or run the other way. A potency beside an inconclusive call is a rough fit, not a confirmed value.

experiment: qHTS of GLP-1 Receptor Inverse Agonists: Cytotox Screen; settings: HEK293 cAMP-luciferase reporter cells, luminescence, 24 h; activity change, negative = inhibition: at 38.3 µM (top of the series) unless noted
Summary of the method: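 A 23 nL compound transfer followed 12 hours of cell culture at 37 deg C; exposure then lasted 24 hr. Luciferase assay detection reagent was dispensed and plates read for luminescence after a 12 min room-temperature wait.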
% is scaled to controls: 0 for no effect and ±100 for the full control effect; potency is read from the fitted curve at half-maximal effect.

| Compound | activity change, negative = inhibition | Potency |
| --- | --- | --- |
| N#Cc1ccc(NC(=O)Nc2ccc(Oc3ccc(NC(=O)Nc4ccc(C#N)cc4)cc3)cc2)cc1 | inactive: -16% | – |
| CN(CC(=O)Nc1ccc(Cl)c(C(F)(F)F)c1)C(=O)CCN1C(=O)C2CCCCC2C1=O (stereo unspecified) | – | inconclusive: 11.2 µM [inhibitor, partial curve, poor fit] |
| CC(C)Cc1ccc(CN2CCCC(NC(=O)c3cccc(-n4cnnc4)c3)C2)cc1 (stereo unspecified) | – | inconclusive: 8.91 µM [inhibitor, single point] |
| Cc1cccc(C(=O)N(Cc2ccco2)Cc2ccccc2F)c1 | inactive: 16.3% | – |
| CC(C)C(=O)Nc1ccc2c(c1)nc(CCN1CCN(c3ccccn3)CC1)n2C | inactive: -3.34% | – |
| CC(C)Cc1nnc(NC(=O)CCS(=O)(=O)c2ccc(Cl)cc2)s1 | – | inconclusive: 12.6 µM [inhibitor, single point] |
| Cc1cccc(NC(=S)N/N=C/c2ccc3c(c2)OCO3)c1 | – | inconclusive: 2.51 µM [inhibitor, partial curve, poor fit] |
| O=C(Nc1nccs1)c1ccc(NC(=O)c2ccco2)cc1 | inactive: -17% | – |
| COc1ccc(NC(=O)Nc2c(O)ccc3ccccc23)cc1 | inactive: -10.5% | – |
| COc1ccc2nc(N=NC3=C(O)CC(C)(C)CC3=O)sc2c1 | – | inconclusive: 12.6 µM [inhibitor, single point] |
| Cn1c(=O)[nH]c(=O)c2c1nc(CN1CCN(c3ccc(F)cc3)CC1)n2CCc1ccccc1 | – | inconclusive: 20 µM [inhibitor, single point] |
| CCOC(=O)CSc1nc(=O)n2ccc(C)cc2n1 | inactive: -15.6% | – |
| CC(C)N(CCCNC(=O)C1CCN(C(=O)c2cc3sccc3n2C)CC1)Cc1ccccc1 | – | inconclusive: 12.6 µM [inhibitor, single point] |
| CC(C)Oc1ccc(C(=O)Nc2ccc(-c3nc4ccccc4s3)cc2)cc1 | inactive: -4.3% | – |
| Cc1ccc(S(=O)(=O)Nc2cc(C(C(=O)OC(C)C)C(=O)C(F)(F)F)c(O)c3ccccc23)c(C)c1 (stereo unspecified) | – | inconclusive: 15.8 µM [inhibitor, single point] |
| Cc1cc(C)c(-n2c(C)cc(/C=C3/NC(=O)NC3=O)c2C)c(C)c1 | – | inconclusive: 31.6 µM [inhibitor, single point] |
| COc1ccc(-c2c(-c3ccccc3OC)sc3ccccc23)cc1C=O | inactive: -32.6% | – |
| COc1cccc(/C=N/NC(=O)CSc2ccccc2C)c1OC | inactive: -8.59% | – |
| Cc1ccc(NC(=O)Cn2c(=O)oc3cc(S(=O)(=O)N4CCC(C)CC4)ccc32)cc1Cl | inactive: 1.19% | – |
| O=C(COc1ccccc1C(=O)N/N=C\c1ccc(O)c(O)c1)N/N=C/c1ccc(O)c(O)c1 | – | inconclusive: 20 µM [inhibitor, single point] |
| c1ccc2oc(C3=NNC(=NC4CC4)SC3)cc2c1 | – | inconclusive: 11.2 µM [inhibitor, single point] |
| O=C(CN1CCOCC1)Nc1c2c(nc3ccccc13)N(Cc1ccccc1)CC2 | inactive: -19.3% | – |
| COC(=O)c1nnn(CC(=O)NC(=O)Nc2ccccc2F)c1C(=O)OC | – | inactive |

| Compound | activity change, negative = inhibition | Potency |
| --- | --- | --- |
| Cc1noc(NS(=O)(=O)c2ccc(NC(=O)c3ccc(Br)cc3)cc2)c1C | inactive: 8.36% | – |
| COc1ccc(C2C3=C(N=C4SCC(=O)N42)c2ccccc2CC3)cc1 (stereo unspecified) | – | inconclusive: 5.01 µM [inhibitor, partial curve] |
| Cc1cc(C)nc(Nc2ncc(O)n2-c2ccc(C)c(Cl)c2)n1 | inactive: -9.61% | – |
| CCCC1OC23CCCCC2C(C#N)(C(=N)O3)C1(C#N)C#N (stereo unspecified) | inactive: 76.8% | – |
| O=[N+]([O-])c1ccc(Sc2ncccn2)c([N+](=O)[O-])c1 | – | inconclusive: 28.2 µM [inhibitor, single point] |
| CCC1Oc2ccc(C)cc2N(CC(=O)NCCCN2CCCCC2CC)C1=O (stereo unspecified) | – | inconclusive: 31.6 µM [inhibitor, single point] |
| Cc1ccc(OCCn2c(=O)cnc3ccccc32)cc1 | – | inconclusive: 22.4 µM [inhibitor, single point] |
| CN1CCN(c2ccc(NC(=S)NC(=O)c3cccc4ccccc34)cc2)CC1 | – | inconclusive: 14.1 µM [inhibitor, single point] |
| CC(=O)Nc1nc2ccccc2n1Cc1ccc(C)cc1 | – | inconclusive: 28.2 µM [inhibitor, single point] |
| Cc1ccc(-c2cc(C(F)(F)F)c(C#N)c(SCCC#N)n2)o1 | inactive: 57.8% | – |
| Cc1ccc(C(C)C)c(OCC(=O)Nc2cccc(-c3nc4ncccc4o3)c2)c1 | – | inconclusive: 22.4 µM [inhibitor, single point] |
| CCOc1ccc(-c2cc3c(=O)n(Cc4nc(-c5ccc(OC)cc5OC)oc4C)ccn3n2)cc1Cl | inactive: -0.0693% | – |
| CCOc1ccc(NC(=O)N(Cc2ccc(CC)cc2)Cc2cn[nH]c2-c2ccc(OC)cc2)cc1 | – | inconclusive: 22.4 µM [inhibitor, single point] |
| COc1ccc(CCNCc2c(-c3ccccc3)n(C)c3ccccc23)cc1 | – | inconclusive: 31.6 µM [inhibitor, single point] |
| Cc1cc(F)ccc1NC(=O)C(C(C)C)N1Cc2ccccc2C1=O (stereo unspecified) | inactive: 4.27% | – |
| CC(=O)c1c(C)nc(Nc2nc(C)c3cc(C)ccc3n2)nc1C | – | inconclusive: 8.91 µM [inhibitor, partial curve, poor fit] |
| COc1ccc(/C=C/C(=O)Nc2ccccc2C(=O)NCC(c2ccc(OC)cc2)N(C)C)cc1 (stereo unspecified) | inactive: -5.25% | – |
| COc1ccc(C(=O)N2CC(=O)Nc3ccc(C)cc3C2c2ccc(F)cc2)c(OC)c1 (stereo unspecified) | inactive: -9.8% | – |
| CC(C)(C)OC(=O)COc1cc(OCC(=O)OC(C)(C)C)c2c(=O)cc(-c3ccccc3)oc2c1 | – | inconclusive: 28.2 µM [inhibitor, single point] |
| COc1cccc(C(=O)Cn2c(=N)n(C)c3ccccc32)c1 | – | inconclusive: 11.2 µM [inhibitor, partial curve, poor fit] |
| C=CCOc1ccccc1CN(C(=O)CCl)c1ccc2c(c1)OCO2 | inactive: -0.551% | – |
| CCN1CCN(Cc2ccc(NC(=O)c3cc(NC(=O)c4cc(C)on4)cc(OC)c3)cc2C(F)(F)F)CC1 | – | inconclusive: 31.6 µM [inhibitor, single point] |
| COc1cc(OC)c(OC)cc1CN1CCc2nc(N3CCN(c4ccccc4F)CC3)ncc2C1 | inactive: -1.5% | – |
